Structures are written as SMILES. Among all 46,000 compounds or so, about 60 (0.1%) were called active. About 3% were inconclusive and are not listed. The call rests on the fitted dose curve; in most records, active means well fitted inhibition curve with a large enough effect; inconclusive means small, poorly fitted or top-dose-only effect; inactive means no such curve, though single readings can be large or run the other way. The list shows a part of the results.

The nature of this assay: Primary qHTS assay for Inhibitors of ovarian cancer metastasis using an organotypic tumor microenvironment (TME) model. Further: nearly all actives have a fitted effect of over 65% in size.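 On activity change, negative = inhibition: plate controls were DMSO wells for no effect and tomatine positive control wells for full effect.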 The settings on record: SKOV3ip1-GFP adhesion/invasion on 3D omental model, fluorescence; series mostly up to 45.8 µM; activity change, negative = inhibition: at the top concentration. The method in brief: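 A 3D layer of primary human omental fibroblasts, mesothelial cells, fibronectin and collagen I, grown 48 hr, received SKOV3ip1-GFP cells in serum-free medium plus compounds at 0.36-46 umol/L. After 2 hr RT and 16 hr 37 C, fixed adherent GFP cells were counted; normalized to DMSO and tomatine.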
On to `COc1ccc(-c2noc(CN3CCN(c4cccc(Cl)c4)CC3)n2)cc1`, for which the molecule was classed as inactive.
In the case of `Cc1cc(C)cc(NS(=O)(=O)c2ccc3[nH]cc(C(=O)N4CCCCCC4)c(=O)c3c2)c1`, the “activity change, negative = inhibition” value was inactive: 2.63%.
Regarding `COc1ccc(OC)c(Nc2ncnc3c2cnn3-c2ccc(C)cc2)c1`, the “activity change, negative = inhibition” value was inactive: -8.11%.
On the same count and under the same terms, with `Cc1cccc(N2CCN(S(=O)(=O)c3ccc(F)c(C(=O)Nc4ccc(C(C)C)cc4)c3)CC2)c1C` the figure was inactive: 2.25%.
On the same count and under the same terms, the figure for `Cc1ccc(C)c(NC(=O)CSc2nc(=O)n(Cc3ccccn3)c3c2CCC3)c1` is inactive: 35.5%; for `CC(=O)N1CCc2cc(Br)cc(S(=O)(=O)N3CCN(c4cc(C)ccc4C)CC3)c21` it is inactive: -6.05%; for `CC(=O)N1c2ccccc2C(=O)C1N1CCN(c2cccc(C(F)(F)F)c2)CC1` (stereo not drawn) it is inactive: 3.91%.
As to `COCCn1c(C)cc(O)c(C(c2ccc(C)cc2)N2CCCCC2)c1=O` (stereo not drawn), the outcome was inactive.
On to `C#CC(C)(CC)NC(=O)c1cc2c(n(-c3ccc(Cl)cc3)c1=O)CC(C)(C)CC2=O` (stereo not drawn), for which the “activity change, negative = inhibition” value was inactive: -6.26%.
For the molecule `CCOc1ccc(CC(=O)NC2CC(=O)N(c3ccc(C)c(C)c3)C2)cc1` (stereo not drawn), the molecule was called inactive.
Take `COc1ccccc1N(CC(=O)Nc1ccc(C)c(Cl)c1)S(=O)(=O)c1ccc(C)cc1`: the “activity change, negative = inhibition” value was inactive: 8.83%.
Turning to `CC1(C)Cc2c(sc(NC(=S)NC(=O)c3ccccc3)c2C(=O)O)CO1`, the “activity change, negative = inhibition” value was inactive: 0.418%.
As for `O=C(C1CCC1)N1CCCc2cc(S(=O)(=O)Nc3ccc(F)cc3)ccc21`, the “activity change, negative = inhibition” value was inactive: 1.27%.
On to `CCN1CCN(c2c(S(=O)(=O)c3ccccc3)cnc3ccc(Cl)cc23)CC1`, for which the “activity change, negative = inhibition” value is inactive: -5.31%.
With `Cc1cccc(CNC(=O)CCCN2C(=O)CCn3nc(-c4cn(C)c5ccccc45)cc32)c1`, the “activity change, negative = inhibition” value is inactive: -7.13%.
On the same count and under the same terms, with `OCc1nc2ccccc2n1Cc1c(F)cccc1Cl` the figure was inactive: 1.19%.
With `Cc1ccccc1OCC(=O)N(Cc1ccc(N(C)C)cc1)CC1CCCO1` (stereo not drawn), the molecule was classed as inactive.
Same read-out and setting: with `Cn1cc(-c2cc3n(n2)CCC(=O)N3CC(=O)O)c2ccccc21` the entry was “inactive”.
Consider `CC(C)(C)OC(=O)N1CCC(c2c(C(=O)N3CCN(c4ccc(Cl)cc4)CC3)cnn2-c2ccc(F)cc2F)CC1`, for which the “activity change, negative = inhibition” value is inactive: 10.8%.
Still for that read-out and setting: the figure for `Cc1ccccc1OCC(=O)Nc1ccc2nc(SCC(=O)N(C)c3ccccc3)sc2c1` is inactive: -12%; for `COc1ccccc1CNC(=O)CCCn1nc(C)c2sc3ccccc3c2c1=O` it is inactive: -10.1%; for `COCCCn1c(=N)c(S(=O)(=O)c2ccccc2)cc2c(=O)n3cc(C)ccc3nc21` it is inactive: 9.9%.
Still for that read-out and setting: the figure for `COc1cccc(NC(=O)C2CCCN(c3nnc(-n4c(C)ccc4C)s3)C2)c1` (stereo not drawn) is inactive: -23.4%; for `Cc1ccc(OCC(=O)OCc2cc(=O)n3nc(-c4cccs4)sc3n2)cc1` it is inactive: -9.99%; for `COc1ccc(CNc2nc(-c3ccco3)nn2C(=O)c2ccccc2Cl)cc1` it is inactive: -1.02%.
On the same count and under the same terms, the figure for `COc1cc(NC(=O)c2cc(-c3cccs3)on2)c(OC)cc1Cl` is inactive: 9.88%; for `COc1ccc(-c2cc(C(=O)Nc3ccc4c(c3)OCO4)no2)cc1OC` it is inactive: -14.1%; for `Cc1ccc(Cn2c(CNS(=O)(=O)c3ccc(C(C)(C)C)cc3)nc3cccnc32)cc1` it is inactive: 8.55%.
With `Cc1nc2sccn2c(=O)c1S(=O)(=O)NCc1ccc(F)cc1`, the “activity change, negative = inhibition” value is inactive: 16.4%.
Still for that read-out and setting: with `CCc1ccc(NC(=O)CSc2c(C)cnc3c2c(=O)n(C)c(=O)n3C)cc1` the figure was inactive: -19.9%.
`Cn1c(=O)c2nc(SCC(=O)Nc3cc(Cl)cc(Cl)c3)n(C)c2n(C)c1=O`: the call was inactive.
As for `C[C@H](Cc1ccc(O)c(O)c1)[C@@H](C)Cc1ccc(O)c(O)c1`, the “activity change, negative = inhibition” value was inactive: -15.3%.
Still for that read-out and setting: the figure for `O=C(c1cc(-c2ccc(Cl)cc2)on1)N(Cc1cccc(F)c1)Cc1ccco1` is inactive: 10.5%; for `Cn1cc(S(=O)(=O)c2ccc(Cl)cc2)c(=O)c2cc(F)c(N3CCCC3)cc21` it is inactive: -2.05%.
Take `COc1ccc(Cl)cc1NC(=O)c1cc2ccc3ccc(C)[nH]c3c2n1`: the molecule was called inactive.
For `O=C(COc1ccccc1Cl)OCc1cc(=O)n2nc(C3CC3)sc2n1`, the “activity change, negative = inhibition” value was inactive: -9.41%.
As to `COc1ccccc1CNc1nc2ccccc2c2nc(-c3cccnc3)nn12`, the “activity change, negative = inhibition” value was inactive: -6.76%.
On the same count and under the same terms, with `Cc1c(NC(=O)c2cc(-c3ccc(O)cc3)on2)c(=O)n(-c2ccccc2)n1C` the figure was inactive: -0.259%; with `COc1ccc(NC(=O)C(=O)NCCc2ccc(OC)c(OC)c2)c(OC)c1`, inactive: -4.96%; with `COC(=O)c1ccc(NC(=O)CSc2cn(CC(=O)N3CCCCCC3)c3ccccc23)cc1`, inactive: 3.68%.
With `COc1ccc(-c2cc3nc(-c4ccc(Br)cc4)cc(C(F)(F)F)n3n2)cc1`, the “activity change, negative = inhibition” value is inactive: 4.96%.
Still for that read-out and setting: the figure for `COc1ccc(CCNC(=O)c2cccc(-n3c(C)nc4cccnc43)c2)cc1OC` is inactive: 7.77%.
On the same count and under the same terms, with `COc1ccc(CNC(=O)C2CCN(C(=O)c3ccc(-n4ccc5ccccc54)s3)CC2)cc1` the figure was inactive: -3.71%.
On to `COCCCNC(=O)c1cnn(-c2ccccc2Cl)c1C1CCN(C(=O)OC(C)(C)C)CC1`, for which the “activity change, negative = inhibition” value is inactive: -9.83%.
Still for that read-out and setting: the figure for `COC(=O)c1cc(C)nc2c1c(=O)nc(SCc1cccc(C)c1)n2C1CC1` is inactive: -11.1%; for `COc1ccc(NC(=O)Cn2c(C)cc3ccccc3c2=O)c(OC)c1` it is inactive: 0.589%.
For `COc1cccc(C(=O)Nc2ccccc2C(=O)OCc2cc(=O)n3c(C)csc3n2)c1`, the result was inactive.
In the case of `Cc1nn(-c2nc(-c3ccc(F)cc3)cc(C(F)(F)F)n2)c(C)c1Br`, the “activity change, negative = inhibition” value was inactive: -8.77%.

The record behind these values is PubChem BioAssay AID1963576 (National Center for Advancing Translational Sciences (NCATS), 2024).
